Results taken from paper PMC4336329 (PLoS ONE, 2015).
Screen size: about 310,000 compounds; about 2,200 (0.71%) showed an effect of 50% or more. Effects have a minus sign here. This is one part of the list.

Each compound was assayed against human ether-à-go-go-related gene (hERG) potassium channel (human, UniProt Q12809) (assay: primary screen, population patch clamp on CHO cells stably expressing hERG).
human ether-à-go-go-related gene (hERG) potassium channel, sequence (Q12809 whole entry, looked up): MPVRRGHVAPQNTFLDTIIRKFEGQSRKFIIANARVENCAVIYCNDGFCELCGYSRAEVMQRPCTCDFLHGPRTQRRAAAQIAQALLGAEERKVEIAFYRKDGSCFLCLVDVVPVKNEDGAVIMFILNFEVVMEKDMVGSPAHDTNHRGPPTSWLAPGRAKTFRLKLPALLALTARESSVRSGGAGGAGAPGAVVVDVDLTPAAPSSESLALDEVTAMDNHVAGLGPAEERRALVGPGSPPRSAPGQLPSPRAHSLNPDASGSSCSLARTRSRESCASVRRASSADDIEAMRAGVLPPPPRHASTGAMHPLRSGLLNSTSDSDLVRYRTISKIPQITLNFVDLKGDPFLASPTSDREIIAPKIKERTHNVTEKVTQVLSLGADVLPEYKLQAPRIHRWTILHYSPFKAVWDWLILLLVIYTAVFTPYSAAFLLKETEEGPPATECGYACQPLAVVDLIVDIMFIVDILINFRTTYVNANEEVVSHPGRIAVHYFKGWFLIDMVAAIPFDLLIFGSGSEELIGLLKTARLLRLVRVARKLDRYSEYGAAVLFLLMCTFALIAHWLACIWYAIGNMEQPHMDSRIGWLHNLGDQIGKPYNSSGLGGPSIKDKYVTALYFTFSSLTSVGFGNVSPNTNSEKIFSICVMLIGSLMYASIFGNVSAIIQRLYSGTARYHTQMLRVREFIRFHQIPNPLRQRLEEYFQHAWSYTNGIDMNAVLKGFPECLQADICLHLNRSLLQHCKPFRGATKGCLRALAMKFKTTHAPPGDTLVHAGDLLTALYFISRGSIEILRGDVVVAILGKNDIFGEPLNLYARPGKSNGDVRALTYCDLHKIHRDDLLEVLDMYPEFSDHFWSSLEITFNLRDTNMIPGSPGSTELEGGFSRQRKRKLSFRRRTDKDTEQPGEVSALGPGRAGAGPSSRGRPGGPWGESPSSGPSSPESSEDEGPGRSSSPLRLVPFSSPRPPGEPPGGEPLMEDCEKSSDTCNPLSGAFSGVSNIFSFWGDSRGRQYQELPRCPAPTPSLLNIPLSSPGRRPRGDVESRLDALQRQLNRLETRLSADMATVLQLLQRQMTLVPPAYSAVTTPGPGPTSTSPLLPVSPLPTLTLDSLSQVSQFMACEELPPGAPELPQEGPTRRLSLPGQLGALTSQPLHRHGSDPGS

| Structure (SMILES) | hERG current change (%, negative = inhibition) at 1uM [%] |
| --- | --- |
| NC(=O)c1ccc(NC(=O)COC(=O)/C=C/c2cccs2)cc1 | 17.8 |
| O=c1[nH]c2ccccc2cc1CN(CC1CCCO1)S(=O)(=O)c1ccc(Cl)cc1 (stereo not drawn) | -41.4 |
| CC1=C(C(N)=O)C(c2ccc(Cl)cc2)n2nc(CCCO)nc2N1 (stereo not drawn) | 16.3 |
| COc1cccc(CNn2cnnc2)c1O | 6.69 |
| Cc1c(NC(=O)C(C)OC(=O)c2nc(Cl)ccc2Cl)c(=O)n(-c2ccccc2)n1C (stereo not drawn) | 9.24 |
| O=C(O)C1CCCCC1C(=O)Nc1ccccc1C(=O)N1CCN(c2ccc(F)cc2)CC1 (stereo not drawn) | -1.35 |
| Cc1cc(NC(=O)Nc2ccc(F)cc2)no1 | -4.5 |
| CC(C)Cc1ccc(CN2CCCC(NC(=O)CCN3CCCCC3=O)C2)cc1 (stereo not drawn) | 6.37 |
| Cc1c(OC(=O)N(C)C)ccc2c1O/C(=C\c1ccco1)C2=O | 14.8 |
| CC(=O)c1cccc(CN2CCC(n3nccc3NC(=O)CCOc3ccccc3)CC2)c1 | 23.6 |
| Cl.O=C(OCCN1CCOCC1)c1ccc(Cl)cc1Cl | 7.15 |
| COc1ccc(NC(=O)C2=C(C)Nc3ncnn3C2c2ccccc2C(F)(F)F)c(OC)c1 (stereo not drawn) | 10.2 |
| Clc1ccc(-n2ncc3c(NCc4cccnc4)ncnc32)cc1Cl | 13.8 |
| COc1cccc(C2C3=C(CCCC3=O)NC3=C2C(=O)c2ccccc23)c1 (stereo not drawn) | 8.22 |
| O=C(NCCS(=O)(=O)N1CCN(c2ccccc2F)CC1)c1ccco1 | 0.315 |
| Cn1nnnc1SCC(=O)c1c(N)n(C)c(=O)n(C)c1=O | 15.1 |
| CCC(C)[C@H](NC(=O)NCc1ccc(Cl)cc1)C(=O)O (stereo partly drawn) | -3.21 |
| CCOC(=O)c1[nH]c2ccc(F)cc2c1NC(=O)CN1CCc2cc(OC)c(OC)cc2C1 | 11.2 |
| C=CCSc1nc2ccccc2n1Cc1nnc(-c2cccs2)o1 | -17.8 |
| O=C(c1cccc(Cl)c1)N1CCCC(C(=O)N2CCN(c3ccccc3)CC2)C1 (stereo not drawn) | -13.1 |
| O=C(CCN1C(=O)/C(=C\c2ccccc2Cl)SC1=S)Nc1cccnc1 | 10.8 |
| O=C(NCc1ccccc1)C(c1ccncc1)N(C(=O)c1csnn1)C1CC1 (stereo not drawn) | 11.6 |

| Structure (SMILES) | hERG current change (%, negative = inhibition) at 1uM [%] |
| --- | --- |
| CN(CC(=O)Nc1ccc(F)c(F)c1F)C(=O)C1CCN(C(=O)Nc2ccccc2)CC1 | -0.567 |
| COc1cc(OC)c2ccc(=O)oc2c1C(CCN1CCCC(C)C1)c1ccc(N(C)C)cc1 (stereo not drawn) | 6.25 |
| O=C(Oc1ccc(-c2nnco2)cc1)c1ccc(Br)o1 | 9.14 |
| O=S(=O)(Nc1cc(C(F)(F)F)ccc1N1CCOCC1)c1ccccc1 | 9.03 |
| Cc1cccc(CN2C(=O)c3ccccc3Sc3ccc(C(=O)O)cc32)c1 | 13.7 |
| COc1ccc(C)cc1NC(=O)c1nn(C)cc1Br | 12.3 |
| Nc1ncc(Br)cc1S(=O)(=O)NCCC(=O)NCc1ccc(F)cc1 | 1.42 |
| CCOc1ccc(NC(=O)Cn2nnc(C(=O)NCc3ccc(OC)cc3)c2N)cc1 | -0.828 |
| C/C(=N\n1c(C)nc2ccccc2c1=O)c1ccc(N)cc1 | 17.5 |
| COC(=O)NC1(C(F)(F)F)NC(=O)N(C2CCCCC2)C1=O (stereo not drawn) | 5.15 |
| S=C(Nc1ccc(Oc2ccccc2)cc1)N(CCCN1CCOCC1)Cc1ccccn1 | -0.69 |
| C=CCn1c(COc2ccc(OC)cc2)nnc1SC(C)C(=O)NC1CC1 (stereo not drawn) | 3.53 |
| O=c1c(N2CCOCC2)nsnc1N1CCOCC1 | 2.95 |
| CCOc1cc(/C=N/N=C/c2ccc(O)c(OCC)c2)ccc1O | 8.76 |
| CC(C)(C)C1=C(C#N)C(c2cccnc2)C(C#N)=C(N)O1 (stereo not drawn) | 11.3 |
| CC(C)(C)OC(=O)CNC(=O)c1[nH]cnc1C(=O)N[C@@H](Cc1ccccc1)C(=O)OC(C)(C)C | 8.05 |
| O=C(NCCS(=O)(=O)N1CCc2ccccc2C1)c1ccccc1 | -5.31 |
| COc1cc2[nH]c(=O)n(CCCCCC(=O)N3CCN(c4ccccc4)CC3)c(=O)c2cc1OC | 7.57 |
| O=C(O)c1cccc(S(=O)(=O)Nc2ccc(OCc3ccccc3)cc2)c1 | 19.7 |
| CN(C)CC(C)(C)CNC(=S)NCc1ccc2c(c1)OCO2 | 7.13 |
| O=C(CSc1nnc(NC(=O)Cc2ccccc2)s1)NCc1ccco1 | 9.5 |
| CC1Oc2ccccc2OC1C(=O)Nc1ccccn1 (stereo not drawn) | 11 |

| Structure (SMILES) | hERG current change (%, negative = inhibition) at 1uM [%] |
| --- | --- |
| CNC(=O)CCCc1nc(-c2ccccc2Cl)no1 | 12.8 |
| CCc1ccc(NC(=O)c2cnn(-c3ccccc3)c2C)cc1 | 4.6 |
| COc1ccc(CCNc2cc(C)nc3c(-c4ccc(Cl)cc4)c(C)nn23)cc1OC | 6.5 |
| CCSC1=C(C#N)C(c2ccccc2Cl)C(C(=O)c2cccs2)C(O)(C(F)(F)F)N1 (stereo not drawn) | 12.1 |
| COc1cccc(C(=O)Oc2c(CN3CCOCC3)cc(Cl)c3cccnc23)c1 | -2.81 |
| O=C(NCCN1CCOCC1)c1cc(-c2ccc(Cl)cc2)on1 | -9.57 |
| Cc1sc2ncnc(SCC(=O)NC(=O)NCc3ccco3)c2c1C | 5.25 |
| Cc1ccc(C(=O)/C=C2\NCCNC2=O)cc1 | 15.2 |
| CC(=O)c1cccc(NC(=S)N2CCc3ccccc32)c1 | 9.99 |
| N/C(=N\NC(=O)c1ccc(Cl)cc1)c1cnccn1 | 13.4 |
| COC(=O)CN1CCN(C(=O)c2ccco2)CC1 | 14.6 |
| CCCCn1c(N)c(N(CCOC)C(=O)c2ccc(S(=O)(=O)N3CCCCC3)cc2)c(=O)[nH]c1=O | -12.9 |
| C/C(=N\NC(=O)c1cccc(O)c1)c1cccc(NC(=O)c2ccc(F)cc2)c1 | 0.544 |
| O=C(Nc1ccc(Cl)cc1)c1ccc(OCC2CCCO2)cc1 (stereo not drawn) | 8.34 |
| Cn1c(CNC(=O)C2CCCCC2)cc2ccccc21 | 18.9 |
| COc1cccc(NC(=O)C(C)N2C(=O)c3ccccc3C2=O)c1 (stereo not drawn) | 7.41 |
| CN(C)/C=C(/C(=O)c1ccc(F)cc1)S(=O)(=O)c1ccc(F)cc1 | 11.6 |
| CCOC(=O)c1cc2[nH]c3ccccc3c2[n+](-c2ccc([N+](=O)[O-])cc2)c1C.[Cl-] | -70.6 |
| FC(F)(F)c1cc(-c2ccccc2)nc(NCc2cccs2)n1 | 14.2 |
| Cc1ccc(CNC(=O)c2ccc(Cl)c(S(=O)(=O)N3CCCCC3)c2)cc1 | 5.88 |
| O=C(O)Cc1c(C(=O)O)[nH]c2ccc(C(=O)O)cc12 | 6.33 |
| Nc1nc2ccccc2n1C(=O)c1ccccc1 | -5.83 |

| Structure (SMILES) | hERG current change (%, negative = inhibition) at 1uM [%] |
| --- | --- |
| COc1cccc(-n2c(SCC(N)=O)nnc2-c2ccco2)c1 | 12.8 |
| CC1CC(C)CN(S(=O)(=O)c2ccc3c(c2)CCN3C(=O)CCC(=O)O)C1 (stereo not drawn) | 7.38 |
| CNC(=O)NC(=O)CSc1nnc(C(F)(F)F)n1C | 8.32 |
| CCC(C)N(C(=O)COC(=O)CN=C1NS(=O)(=O)c2ccccc21)C1CCS(=O)(=O)C1 (stereo not drawn) | 3.44 |
| COc1cc(OC)c(OC)cc1CCC(C)NC(=O)Cc1ccccc1 (stereo not drawn) | 1.35 |
| O=C(Nc1ccccc1F)Nc1cc(S(=O)(=O)N2CCOCC2)ccc1N1CCCC1 | 6.7 |
| CC(Oc1ccc(F)cc1)C(=O)Nc1cc(S(=O)(=O)N2CCOCC2)ccc1N1CCN(C)CC1 (stereo not drawn) | 5.48 |
| COc1cccc(N2CCN(CC(=O)Nc3ccccc3C(=O)NCc3ccccc3)CC2)c1 | 6.34 |
| O=C1c2ccncc2C(=O)N1Cc1cccc(Cl)c1 | 1.04 |
| COc1ccccc1C(=O)NC(CCSC)C(=O)OCC(=O)c1ccc[nH]1 (stereo not drawn) | 4.33 |
| CCS(=O)(=O)N1CCCC(C(=O)NCCc2ccc(C)cc2)C1 (stereo not drawn) | 5.15 |
| O=C(Nc1ccccc1Cl)c1ccc(-c2ccccn2)s1 | 6.87 |
| CC(C)N(C(=O)Cn1cc(SCC(=O)NCc2ccco2)c2ccccc21)C(C)C | -5.87 |
| COc1ccc(C(=O)CC(SCC(NC(C)=O)C(=O)O)c2ccc(Cl)cc2)cc1OC (stereo not drawn) | 13 |
| Cc1[nH]cnc1C(=O)N/N=C/c1ccc([N+](=O)[O-])s1 | 17.9 |
| CCCn1nnc2sc3c(c2c1=O)CCC(C)C3 (stereo not drawn) | 13.6 |
| O=c1cc(-c2ccc(O)cc2)oc2cc(O[C@@H]3O[C@H](CO)[C@@H](O)[C@H](O)[C@H]3O[C@@H]3OC[C@](O)(CO)[C@H]3O)cc(O)c12 | 12.2 |
| CCN1CCCC1CNC(=O)c1cc(COc2ccc(C)c(C)c2)on1 (stereo not drawn) | -18.3 |
| C[C@H](NC(=O)CCC(=O)N1C[C@H]2C[C@H](C1)c1cccc(=O)n1C2)c1ccccc1 | 6.45 |
| O=S(=O)(c1cccc(-c2cn3cc(Cl)ccc3n2)c1)N1CCOCC1 | 1.73 |
| Cc1ccc(S(=O)(=O)CCC(=O)OCC(=O)N2CCN(c3ccccc3)CC2)cc1 | -7.19 |
